Experimental data taken from PubChem BioAssay AID488969 (Vanderbilt High Throughput Screening Facility, 2010).
The full ranking holds about 110,000 compounds; the median of “z-score” is about -0.1, and the highest 2% start at about 2. The list shows a part of the results. Active and inactive are the calls of the source.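 How the source made its calls: active means z-score in the third read window above 3 or below -3; inactive means the rest.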

molecular target: Metabotropic glutamate receptor 8 (Rattus norvegicus) (UniProt P70579); assay: rat mGluR8 modulators via GIRK flux, primary screen, cell-based, thallium flux, HTS (AID 488969); details: HEK293 rat mGluR8, GIRK (G protein-gated inwardly rectifying potassium channel) thallium flux, FluoZin2; at 10 µM; stronger effect = higher value; submaximal glutamate (EC20) added with thallium
UniProt P70579, sequence (P70579 whole entry, looked up): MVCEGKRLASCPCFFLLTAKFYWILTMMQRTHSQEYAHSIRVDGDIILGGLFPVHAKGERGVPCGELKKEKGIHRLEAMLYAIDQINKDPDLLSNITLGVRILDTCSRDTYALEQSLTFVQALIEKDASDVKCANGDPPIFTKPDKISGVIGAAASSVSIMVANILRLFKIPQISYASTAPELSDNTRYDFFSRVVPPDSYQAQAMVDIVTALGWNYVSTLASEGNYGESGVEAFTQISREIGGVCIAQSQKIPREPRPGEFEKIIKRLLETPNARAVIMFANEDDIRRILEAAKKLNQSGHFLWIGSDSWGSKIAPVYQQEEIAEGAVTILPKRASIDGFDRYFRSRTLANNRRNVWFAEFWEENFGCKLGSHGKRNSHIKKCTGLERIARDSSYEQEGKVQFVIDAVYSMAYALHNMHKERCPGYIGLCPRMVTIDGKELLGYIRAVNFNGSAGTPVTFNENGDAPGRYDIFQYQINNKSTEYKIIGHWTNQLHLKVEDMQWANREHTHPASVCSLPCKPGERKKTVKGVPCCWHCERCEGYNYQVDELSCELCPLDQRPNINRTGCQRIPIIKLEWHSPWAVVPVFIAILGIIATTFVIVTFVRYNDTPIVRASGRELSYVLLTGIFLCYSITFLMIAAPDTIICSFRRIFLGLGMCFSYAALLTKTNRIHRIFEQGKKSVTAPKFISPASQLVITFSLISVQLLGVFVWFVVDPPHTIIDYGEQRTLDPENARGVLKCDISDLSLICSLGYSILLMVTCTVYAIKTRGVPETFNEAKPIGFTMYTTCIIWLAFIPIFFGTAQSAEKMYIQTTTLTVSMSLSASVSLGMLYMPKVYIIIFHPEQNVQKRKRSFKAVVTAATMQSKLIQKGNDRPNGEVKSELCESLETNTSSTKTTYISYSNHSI

| Structure (SMILES) | z-score |
| --- | --- |
| CCOc1ccc(CCNC(=O)CCN2C(=O)COc3ccccc32)cc1OCC | -0.467 |
| COc1cnn(-c2ccccc2)c(=O)c1N(C)C | -0.0974 |
| O=C(Nc1ccc2c(c1)OCO2)c1ccc(N2C(=O)c3ccccc3C2=O)cc1 | -0.161 |
| O=C(CSc1nnc(-c2cccnc2)n1-c1ccccc1)Nc1ccccn1 | -0.00451 |
| Cc1ccc(Nc2nnc(SCc3cc(=O)n4cc(C)ccc4n3)s2)cc1 | -1.62 |
| Cc1cc2c3c(ccc(C)c3n1)N=CN2c1ccccc1 | -1.13 |
| CCC(C(=O)Nc1ncn[nH]1)(C(F)(F)F)C(F)(F)F | 0.801 |
| Cc1ccc(C)c(N2CCN(CCCNC(=O)Cn3cc4c(n3)CCC(C)C4)CC2)c1 (stereo not given) | 1.12 |
| CCC(C)C(=O)Nc1nc(C)c(-c2csc(Nc3cc(Cl)ccc3OC)n2)s1 (stereo not given) | -0.145 |
| CCOC(=O)CN(C(=O)CCC(=O)Nc1cc(C)on1)C(C(=O)NC1CCCC1)c1cccnc1 (stereo not given) | 0.98 |
| COc1ccc(C(C)=O)cc1COC(=O)c1cnc(C)cn1 | -0.416 |
| COc1ccc(C(=O)NCC(=O)NCC2(N(C)C)CCCCC2)cc1OC | 0.0259 |
| COC(=O)[C@@H]1[C@@H](C#N)C2(c3ccccc3-c3ccccc32)N(c2ccc(Cl)cc2)N1C#N | -0.00814 |
| COc1ccc(NC(=O)CSc2ccccn2)cc1 | -0.252 |
| CN(C)C(CNS(=O)(=O)c1ccc(Cl)cc1)c1cccnc1 (stereo not given) | -0.0299 |
| COc1ccc(N/N=C(/Oc2ccc([N+](=O)[O-])cc2)C(C)=O)cc1 | -0.706 |
| Cc1ccccc1NC(=O)Cc1ccccc1 | -0.647 |
| CCOC(=O)c1ccc(NC(=S)N2CCSC2c2ccc(Cl)cc2)cc1 (stereo not given) | 0.0748 |
| COc1ccc(N2CCN(Cc3nc4c(c(=O)n(C)c(=O)n4C)n3CC(C)=O)CC2)cc1 | 0.0804 |
| COc1cccc(C(C)NC(=O)c2c(F)cccc2Cl)c1 (stereo not given) | 0.339 |
| CCN(CC)C(=O)CSc1ncnc2c(-c3cccs3)nsc12 | 0.226 |
| CCOc1ccc(Cn2nnc(C(=O)Nc3cc(C)cc(C)c3)c2N)cc1 | -0.0123 |
| NC(=O)CSc1nc2ccccc2n1-c1ccccc1 | 0.2 |
| CCCCN(CC)C(=O)Cn1ncc2c1-c1cc(C)ccc1OC2 | -0.807 |

| Structure (SMILES) | z-score |
| --- | --- |
| COC(CNC(=O)c1cc(C)nn1-c1ccccc1)OC | 0.0295 |
| CCOC(=O)c1ccc(NC=C2C(=O)OC3(CCCCC3)OC2=O)cc1 | -0.448 |
| CC(=O)Nc1ccccc1-c1nc2ccc(C(=O)N3CCN(c4cc(C)ccc4C)CC3)cc2[nH]c1=O | -0.169 |
| Cc1ccc(C(=O)Nc2oc(-c3ccccc3)cc2C#N)cc1 | 0.866 |
| CC(=O)c1sc(N/N=C\c2ccc(Br)cc2)nc1C | -0.109 |
| O=C(Nc1ccc(Cl)cn1)c1cccnc1 | 0.384 |
| Cc1ccc(-n2[nH]c(C)c(C=Nc3ccc(S(=O)(=O)N4CCOCC4)cc3)c2=O)c(C)c1 | -0.374 |
| CCN1C=C(Cc2ccccc2C)C2=C(C1)C(c1ccccc1C)C(C#N)=C(N)O2 (stereo not given) | -0.307 |
| O=C(N/N=C/c1ccc(Cl)c([N+](=O)[O-])c1)c1cnccn1 | 0.9 |
| COc1ccc(/C(C)=N/NC(=O)c2cc(-c3cccnc3)nc3ccccc23)cc1 | -0.0991 |
| CCS(=O)(=O)n1nc(-c2ccc(C)cc2)nc1N | 0.216 |
| O=C1NCCN1Cc1cccc(Cl)c1 | -0.251 |
| Cc1ccc2[nH]c(=O)c(CN(Cc3cccs3)S(=O)(=O)c3ccc4c(c3)OCCO4)cc2c1 | 0.0485 |
| COc1cc(SC)ccc1C(=O)N(C)Cc1ccccc1 | 0.253 |
| CC(=O)Nc1ccc(NC(=O)N2CCCCC2)cc1 | -0.396 |
| CC(=O)Nc1ccc(S(=O)(=O)N/N=C/c2ccc(C)s2)cc1 | 0.93 |
| Cc1sccc1C1C(C#N)=C(N)SC(N)=C1C#N | active: -4.47 |
| CN1CCN(C(=O)C2(NC(=O)Nc3ccccc3Cl)CCCCC2)CC1 | 0.259 |
| O=C(Cc1ccc(-c2ccccc2)cc1)NC(c1ccccc1)c1ccccc1 | 0.0168 |
| COc1cccc(NC(=O)Cc2nnc(SCC(=O)c3ccccc3)n2C)c1 | -0.61 |
| Cc1ccc(NC(=O)NC2C(NC(=O)Nc3ccc(C)cc3)N(C)C(=O)N2C)cc1 (stereo not given) | -0.353 |
| O=C(N/N=C/c1ccc([N+](=O)[O-])s1)c1ccncc1 | -0.428 |
| CSc1ccc(S(=O)(=O)Nc2cccc(F)c2)cc1 | 0.586 |
| CCc1nc2ccccc2c2nc3ccccc3n12 | -0.494 |

| Structure (SMILES) | z-score |
| --- | --- |
| Cc1noc(NS(=O)(=O)c2ccc(NC(=O)C34CC5CC(C3)CC(n3cnc(Cl)n3)(C5)C4)cc2)c1C | 0.429 |
| O=C(NCCCN1CCOCC1)[C@@H]1CSC2c3ccccc3C(=O)N21 (stereo not given in full) | 0.157 |
| CC1CCCCN1S(=O)(=O)c1cnc(Cl)c(Br)c1 (stereo not given) | -0.124 |
| Cc1occc1C(=O)NCc1cccs1 | -0.645 |
| CC(C)NCC(=O)NC12CC3CC(CC(C3)C1)C2 | 0.285 |
| COCCCNc1oc(-c2ccccc2OC)nc1C#N | 1.64 |
| Cn1c(CN2CCOCC2)nc2cc(NC(=O)c3ccccc3Cl)ccc21 | -0.169 |
| O=C(CC1SC(=O)N(Cc2ccccc2)C1=O)Nc1nccs1 (stereo not given) | -0.116 |
| CC(C)N1C(=O)/C(=C/c2nc3ccccc3c(=O)n2-c2ccccc2)c2ccccc21 | -0.518 |
| Cc1ccccc1C(=O)O/N=C(\N)c1cccc([N+](=O)[O-])c1 | -0.117 |
| O=[N+]([O-])c1ccccc1N/N=C/c1cc2ccccc2nc1Cl | -0.459 |
| Cc1ccccc1-n1c(C)nnc1SCC(=O)N1CCc2ccccc2C1 | 0.175 |
| COc1ccc(CNC(=O)COC(=O)C2CCN(S(=O)(=O)c3ccccc3C(F)(F)F)CC2)cc1 | -0.727 |
| Cc1ccc(C2=NN(C(=O)CCl)C(c3cccs3)C2)o1 (stereo not given) | -0.392 |
| CCN(C(=O)COC(=O)c1c(-c2ccccc2)noc1C)C1CCS(=O)(=O)C1 (stereo not given) | 0.0658 |
| CC(C)NC(=O)C(Sc1ccccc1)c1ccccc1 (stereo not given) | -0.154 |
| C=CCNC(=O)c1onc(CSc2cccc3ccccc23)c1C(=O)O | -0.174 |
| CN(C)c1ccc(CNC23CN4CN(CN(C4)C2)C3)cc1 | 0.628 |
| COc1cc(/C=C/C(=O)OCC(=O)N2CCN(S(=O)(=O)c3ccc(C)cc3C)CC2)ccc1O | 0.565 |
| CCOC(=O)N1CC=C2C(C#N)=C(N)C(C#N)(C#N)[C@H](c3cccs3)C2C1 (stereo not given in full) | -0.232 |
| Cc1nn(C)c(=O)n1-c1ccc(Oc2ccccc2)cc1 | 0.233 |
| O=C1c2ccccc2C(O)N1Cc1ccc2c(c1)OCO2 (stereo not given) | -0.579 |
